# Measurements reported in the supplement of paper PMC12632987.
# In all, about 4,500 sequences were measured (“median log2 fold change of GCK-ALFA target abundance (FLAG IP / Myc IP barcode read proportion)”: median about 0.078, lowest 2% from about -0.6 on). This is one part of the list.
# B1: GBRAP_166_4942 (protein)
# chain: ALEKVLKELKAKIEEFEKNIKNLNEEEKFDRIIEIGELIKKAKEAGASDEELVEAIKKVLEAAKKAGFNPAVAAGIIANVADVSEELLDKIWKYVDELKK
# B2: GBRAP_78_6661 (protein)
# chain: ERKKLLEEAIEHVDKAAKILLKLNTEEALEVLDKLSEARAELVEVELENLGKEALEEALKLLEEARKLLEKYKDKFPEEDYKEIKEHLDKAIKLVKEALK
# B3: GBRAP_52_5846 (protein)
# chain: MEEEARRIAEELVRLRLEGKEEELEKRIKEIVETKSEEFVFLILEELARLAKEADEETAEAILEVAELLADIAEKAGFDPDKLSYLLARVYAAVYERLQK
# B4: GBRAP_137_3619 (protein)
# chain: KTVTITFSEEDGTAFATIVASPEVDHEKLEELIEEVAEETGAQLVKAYDEDSETAEFDLVGTPEQIIAATKLLIERLKSEMGAEVVLTSDGAEDLVEAVK
# B5: GBRAP_52_6058 (protein)
# chain: MEKEIKEIAEKIAEAIKAGDLEKALELLKELIKNKSVEEITETLRLAAELVAKLGEEKHEKFVELLDKVEELMIEAGISEEEALLVVGDAEAALARAVAA
# B6: GBRAP_128_3448 (protein)
# chain: SAEAIEARAREVAAAFAEKLEEGPEAAADYLIEQLAAADLEEVEAITEAVVEVLRTLDNETAEEVVDLILEKSRSLSPEKRAVVDVILSPLIFELVEKEE
# B7: GBRAP_160_4248 (protein)
# chain: EERIKKLREDFLAEAEDTLEALLELPRSQWAAIARAMAGNIVQLVIEDPNATDEAEEAVDKLADALVERLLAARDASPEELRALLEEGVAEIVAAYEKLV
# B8: GBRAP_11_2622 (protein)
# chain: KKEILKKIAELAKEAAELAEKLLKEGVDNEELRKELREKLKELAELVEKHADESSKKDVEIAEELFKEAEEDEENKEEYFKQLLAALRVLAGNFLLEIEE
# B9: GBRAP_52_6240 (protein)
# chain: MKEEMRKLAEEAYEKVKAGDEEGARKIFKELAETKNDEEIRIFIDELAKLAAKARKEDIDDVWRLTEIASEALEEAGKPDILVDDLEAKTAAALAKVEAK
# B10: GBRAP_139_3737 (protein)
# chain: SADQEKVAAAAAEAAKLKDDLEAVAEYLVKVVKEVDEETAAAITRAVMEVMAGLPVEKQLELRDLVLEKLEEAGVPEDKITVVEAELNGGLARIAYEQEL
# B11: GBRAP_96_7087 (protein)
# chain: MLEEVKKLVREAVAARDTDPEKYEALVKELNKYPAELIAKAMVELGLSDEEKVALARALFEDDPSKIGEYLEALIEYDDSSAVSRAAAAAIEIEAERERA
# B12: GBRAP_52_5899 (protein)
# chain: MEEKAKKLAEEVVEAIKAGDFEKAVELIVDALLNLSSEEVDIFARELRKLLEKTSLEEAERAVEAAEKASEIALEKGADEDDVTLVEDAAETALVLVELA
# B13: GBRAP_52_6188 (protein)
# chain: MREAIRARLRAIHALVRAGRLDEAAAAAAELVAALDEEELRLLVEVMAELTAEAPLADADAMFRTAEILAAAIEAAGKDEVLAEDLLAAVAAALHAKELA
# B14: GBRAP_128_3305 (protein)
# chain: MNEERLKEAEELAEKMVEADVEEAAELTREIIELMATATEEERERIAEIMEEKFEELDAEKLDAVADVLREQIPKLDPLVAREVAGMEVEALNRAEEKEE
# B15: GBRAP_35_5624 (protein)
# chain: DVNKEIADAMVAVLEDTLLAVDTVPAETFLDTAIRVAEAGLEVAKELKEDKENAERILDAVERLLDAALERARRTGAPEEHLERLERLREEARELRKELK
# B16: GBRAP_184_5068 (protein)
# chain: KTIYETLEVRDLEEARAKVAALAERLKDAKGDLVVHVEMPEADREIIRAVLAGLKAMLDAGYVTSATVGFDAELTEELADFAIEEADRAGVNIVLALSDE
# B17: GBRAP_11_2703 (protein)
# chain: KKEELKKAAELAEKLAEVIEKLIEEGVDNEELRAEAEKLIEELTKLTKKYGDKALQKLAEIIKELWEKALKDPENAVEYLKELLAAARVLAGQYLLEIEE
# B18: GBRAP_52_6273 (protein)
# chain: MEEEAKKLAEEALDVVLNKSKEEIKAFAKKLVAENSQELIALTLEIVVEKAKELNLEEIEKLLDFMLILEDELEKAGKDPLPAEDAAARLAGLALEKRAE
# B19: GBRAP_160_4572 (protein)
# chain: SEELEKLIKEIRELVEEAVEFIEGQSFEQRLAVVRVTVGDILLELEENPEVSEEVEEKADEIGDELIETIEANPELTAEEIKELLRKAAEEIIKLIKEEA
# B20: GBRAP_53_6392 (protein)
# chain: KEEEIKELVEKLEKLIEELEKADEEEAIKLAKEARKVLVELAKLGLPEEELVKLVRRFAEAASKREELRPVLIELIKDLAALGREDAAAEAAEVLTEELE
# B21: GBRAP_184_5093 (protein)
# chain: KTLERKIEAKNVEEAKKKLEEVIKEAEEKKANLNVLVDVEGLNVEDAIELIEMVGKAKKEGKVKDATIGFTEEFTEEEVDKIVKKADEEGVKVVLPLKEE
# B22: GBRAP_125_3138 (protein)
# chain: KREALIELARALMEAAGFSEEEIAEALELARASDPVQTIVAILLAAGFEEAAELWEKVGPKLTEEEAKELTELARELRDAPREEFEERLTEKLKELLEKI
# B23: GBRAP_11_2793 (protein)
# chain: KKELLKKLAEELRKAAEALKALIAAGLKDEEGWKKARELLKRAEELAREAGDEDTAELLEIALEDLEKAKADPENAQEYLNNALAAVRVAEGLTLLRIEE
# B24: GBRAP_117_2575 (protein)
# chain: HMTKEEVKEKVRETVKEVIERLKEARKLSPEEREKVLKELRERMTKVVEEALKVLSEEEVLEIVEEALLEADAETYFEAESIVLDALNEVRERRKKEAEE
# B25: GBRAP_52_5990 (protein)
# chain: MEEEAREVAERALALRLEGREEEARALLEEVVETKSPEFIRLVAEELARLARTATPEERDAIVDVAIDLEDIALEAGFDEAEADDGLARVAAAAHDALLA
# B26: GBRAP_14_3874 (protein)
# chain: KEKALEIAKEEIDEMAELLEEAIPEKAAEIAAMREKLLAAAEEFFTSEEDPEEAAEKLKAYAEKVVAEFAKGLSPEDAALARAIAGVELGDLLLEIDELL
# B27: GBRAP_184_5303 (protein)
# chain: AVRHVVIEAETAEEALAQLRAAAAAARAAGERLAVDLFLKNVSVEGFARVAALLAELRAEGVLAAATVHIENDKTEEEVDAFVAIADAAGLRLVLALPDE
# B28: GBRAP_160_4794 (protein)
# chain: SERIEKVAEIFREEAERALEMARGETVEERVAIFDVELGSAIMEAIEEGLLNDEEEDIAIEVRDELVEEVRRNPELTEEELRELARRKIEELRERLEELE
# B29: GBRAP_11_2794 (protein)
# chain: KKEKLKELAKVLEEAAAALEALIAAGPSDAAGWKKASKLLQEALKLAKEAGDEDTAELLKIAQEELAEAQADPANRQQHLQNALAAVRVALGLTLLAIEE
# Target: GABARAP, O95166
# Sequence (O95166 whole entry, the tested form may be a part): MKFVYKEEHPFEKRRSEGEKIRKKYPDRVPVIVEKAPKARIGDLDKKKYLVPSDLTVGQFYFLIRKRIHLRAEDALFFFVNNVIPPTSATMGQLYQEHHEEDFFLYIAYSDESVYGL
# Test: median log2 fold change of GCK-ALFA target abundance (FLAG IP / Myc IP barcode read proportion) (log2 ratio); each designed protein is fused to an ALFA-tag nanobody in HEK293 cells to bring the named protein to FLAG-tagged glucokinase (GCK); Myc marks an untargeted standard; higher = target protein stabilised (more abundant)
# Conditions: target protein: 3xFLAG-MCP-GCK-ALFA reporter; HEK293 landing pad (RPLP)
# In short: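 Sequencing of reverse-transcribed, amplified circular RNA barcodes from anti-FLAG and anti-Myc immunoprecipitates provided the readout for an ALFA-nanobody-fused binder library recombined into HEK293 landing-pad cells. Those cells were induced with 2 μg mL^−1 doxycycline, transfected with a plasmid expressing a FLAG-tagged target and a Myc-tagged standard, and lysed after 48 h. Target abundance is the per-binder median log2 ratio of FLAG to Myc barcode read proportions. Only barcodes at a proportion of ≥10^−7 in both replicates and binders with ≥3 barcodes per replicate were kept, with a 10^−6 pseudocount added before the two replicates were pooled.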
row,Binder,median log2 fold change
1,B1,0.222
2,B2,0.235
3,B3,0.0444
4,B4,-0.356
5,B5,-0.378
6,B6,0.114
7,B7,0.148
8,B8,0.0325
9,B9,0.249
10,B10,0.25
11,B11,0.145
12,B12,-0.159
13,B13,0.0824
14,B14,-0.0439
15,B15,-0.248
16,B16,-0.0866
17,B17,0.258
18,B18,0.369
19,B19,-0.141
20,B20,0.0665
21,B21,0.269
22,B22,0.131
23,B23,-0.353
24,B24,0.303
25,B25,-0.14
26,B26,-0.12
27,B27,0.0834
28,B28,0.169
29,B29,0.173
